Test results published in PubChem BioAssay AID1461 (National Center for Advancing Translational Sciences (NCATS), 2008).
Hit rate of the full screen: of about 220,000 compounds, about 2,300 (1%) were called active. The shares of active, inactive and inconclusive entries below differ from those in the screen. Calls follow the shape of the dose curve; as a rule, active = well fitted inhibition curve with a large enough effect; inconclusive = small, poorly fitted or top-dose-only effect, or effect the other way; inactive = no such curve, though single readings can be large or run the other way. Potencies of inconclusive entries are doubtful fits and often do not repeat.

target: Neuropeptide S receptor (Homo sapiens) (UniProt Q6W5P4); assay: qHTS Assay for Antagonists of the Neuropeptide S Receptor: cAMP Signal Transduction; conditions: CHO-NPSR cells, cAMP TR-FRET, antagonist mode; activity change, negative = inhibition: at 38.3 µM (top of the series) unless noted; also: nearly all actives have a fitted effect of over 50% in size
Chain of UniProt Q6W5P4 (Q6W5P4 whole entry, looked up): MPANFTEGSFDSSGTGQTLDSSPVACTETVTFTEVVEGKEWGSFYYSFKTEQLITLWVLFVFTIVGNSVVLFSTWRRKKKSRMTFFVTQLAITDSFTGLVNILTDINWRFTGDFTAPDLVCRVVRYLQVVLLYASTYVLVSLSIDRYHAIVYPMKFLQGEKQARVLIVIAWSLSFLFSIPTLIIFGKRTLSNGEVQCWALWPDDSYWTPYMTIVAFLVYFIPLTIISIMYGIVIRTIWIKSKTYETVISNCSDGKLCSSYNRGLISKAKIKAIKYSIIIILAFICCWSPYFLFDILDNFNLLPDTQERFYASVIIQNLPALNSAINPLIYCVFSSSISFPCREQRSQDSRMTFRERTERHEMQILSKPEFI
% is scaled to controls: 0 for no effect and ±100 for the full control effect; potency is read from the fitted curve at half-maximal effect; tags tell the direction and shape of the fitted curve.

| SMILES | Potency | activity change, negative = inhibition |
| --- | --- | --- |
| Cc1ccc(S(=O)(=O)Oc2ccc(/C=C(/NC(=O)c3ccccc3)C(=O)O)cc2)cc1 | inactive | – |
| CCCOc1cc(C)c(S(=O)(=O)n2ccc(C)n2)cc1C | inconclusive: 5.01 µM [inhibitor, partial curve] | – |
| CC(C)(C)NC(=O)C(c1ccco1)N(C(=O)Cn1nnc(-c2ccc(F)cc2)n1)c1cccc(F)c1 (centres undefined) | inconclusive: 10 µM [activator, single point] | – |
| Cc1ccc(SCC(=O)Nc2cccc(-c3nnc(-c4ccco4)o3)c2)cc1 | inconclusive: 3.16 µM [inhibitor, full curve, poor fit] | – |
| COc1ccc(C(=O)CN2CC(C)SC2=Nc2ccc(Cl)cc2)cc1 (centres undefined) | inconclusive: 12.6 µM [inhibitor, partial curve] | – |
| COCCn1c(Sc2ccccc2)nc2c1c(=O)[nH]c(=O)n2C | inconclusive: 25.1 µM [inhibitor, single point] | – |
| COc1ccc(OCCCn2c(=O)oc3ccccc32)cc1 | inconclusive: 12.6 µM [inhibitor, single point] | – |
| c1ccc(-n2ncc3c(N4CCN(CCOc5cccc6ccccc56)CC4)ncnc32)cc1 | inconclusive: 10 µM [inhibitor, single point] | – |
| Oc1ccc2oc3c(c2c1C=NCc1ccncc1)CCCC3 | inconclusive: 25.1 µM [inhibitor, single point] | – |
| CCC(=O)N/C=C/n1cnc2cc(C(F)(F)F)ccc21 | inconclusive: 3.98 µM [inhibitor, single point] | – |
| Cc1cc(Nc2ccc(C)c(Cl)c2)nc(N2CCOCC2)n1 | inconclusive: 25.1 µM [inhibitor, single point] | – |
| c1ccc(Cc2nnc3sc(C4COc5ccccc5O4)nn23)cc1 (centres undefined) | inactive | – |
| CC(C)(C)OC(=O)N[C@@H](Cc1ccccc1)c1nnc(S(=O)(=O)Cc2cccc(F)c2)o1 | inconclusive: 10 µM [inhibitor, partial curve] | – |
| Cc1ccc(NC(=O)N/C=C/c2ccco2)cc1 | inconclusive: 3.16 µM [inhibitor, partial curve, poor fit] | – |
| CN1CCN(c2ccc(NC(=O)COc3ccc(Cl)cc3Cl)cc2)CC1 | – | inactive: 3.6% [at 7.67 µM] |
| FC(F)(F)c1ccc(Cl)c(-n2c(Cc3cccs3)n[nH]c2=S)c1 | inconclusive: 25.1 µM [inhibitor, single point] | – |
| CC(C)NS(=O)(=O)c1ccc(N2C(=O)c3ccccc3C2=O)cc1 | inconclusive: 25.1 µM [inhibitor, single point] | – |
| COc1ccc(C)cc1NC(=O)C(=O)NCc1ccncc1 | inactive | – |
| COC(=O)c1ccc(OCC(=O)Nc2nn(-c3ccccc3)nc2C(N)=O)cc1 | inconclusive: 20 µM [activator, single point] | – |
| COc1ccc(C2C(C#N)=C(N)Oc3c2c(C)nn3-c2ccccc2)cc1Cn1nc(C)c([N+](=O)[O-])c1C (centres undefined) | inconclusive: 10 µM [inhibitor, single point] | – |
| COc1ccc(-n2c(=O)c3c4c(sc3n3c(=S)[nH]nc23)COC(C(C)C)C4)cc1 (centres undefined) | inconclusive: 1.26 µM [activator, partial curve] | – |
| Cc1cc(C)nc(N/N=C/c2c[nH]c3ccccc23)n1 | inactive | – |

| SMILES | Potency | activity change, negative = inhibition |
| --- | --- | --- |
| CC(=O)NC(=O)COC(=O)/C=C/c1c(C)nn(Cc2c(Cl)cccc2Cl)c1Cl | – | inconclusive: -32.1% [inhibitor] [at 46.1 µM] |
| COc1ccc(NC(=O)C2CCN(S(=O)(=O)c3ccc(Br)s3)CC2)cc1OC | inactive | – |
| CCCCCCCCn1c(=O)c(C(=O)OC)c(N)c2ccccc21 | inconclusive: 25.1 µM [inhibitor, single point] | – |
| O=C(/C(=N/N=C/c1ccc(O)c(O)c1O)c1ccccc1)c1ccccc1 | inconclusive: 12.6 µM [inhibitor, single point] | – |
| c1ccc(COc2ccc(OCCCCN3CCCC3)cc2)cc1 | inconclusive: 20 µM [activator, partial curve, poor fit] | – |
| COc1ccccc1/C=C\C=N\n1c(-c2ccc(Cl)cc2)n[nH]c1=S | inactive | – |
| COc1ccc(CN2C(=O)C(C)S/C2=N/N=C/c2ccco2)cc1 (centres undefined) | inactive | – |
| CCOC(=O)c1ccccc1NC(=O)CSc1nnc(Cc2cccn2C)n1-c1ccc(C)cc1 | inconclusive: 10 µM [inhibitor, single point] | – |
| CC1(C)CC(=O)C(C(=O)C2CCN(S(=O)(=O)c3ccccc3)CC2)C(=O)C1 | inactive | – |
| COc1ccc(-c2nc(C#N)c(NCc3ccc(F)cc3)o2)cc1OC | inconclusive: 12.6 µM [inhibitor, partial curve] | – |
| CCOC(=S)SCC(=O)Nc1nc(-c2ccccc2)cs1 | inactive | – |
| CCOc1ccc(-c2cc3nc(C4CCN(C(=O)OC(C)(C)C)CC4)c(C(=O)O)cn3n2)cc1 | inconclusive: 15.8 µM [inhibitor, single point] | – |
| COC(=O)CSC(C(=O)Nc1ccc(C)c(C)c1)c1ccccc1 (centres undefined) | inactive | – |
| N#CC1=C2SCC(O)(c3ccccc3)N2C(=O)CC1c1cccs1 (centres undefined) | inactive | – |
| S=C(NCc1cccs1)Nc1ccccc1Cl | inactive | – |
| Cc1noc(C)c1COC(=O)c1ccccc1Sc1ccccc1C#N | inconclusive: 10 µM [inhibitor, partial curve] | – |
| Nc1sc(-c2ccccc2)cc1-c1n[nH]c(=S)n1C1CCCCC1 | inconclusive: 15.8 µM [activator, partial curve] | – |
| C=CCOc1ccc(CN(C)CC(=O)N(CC(C)C)c2c(N)n(CC(C)C)c(=O)[nH]c2=O)cc1 | inactive | – |
| CCCC(=O)Nc1cc(-c2nn(C)c(=O)c3ccccc23)ccc1OC | inconclusive: 12.6 µM [inhibitor, single point] | – |
| CCN(CC)C(=O)CSc1nc2sc(C)c(C)c2c(=O)[nH]1 | inconclusive: 12.6 µM [inhibitor, single point] | – |
| CCC(=O)N(CCC(Cc1ccccc1)c1ccc2c(c1)OCO2)Cc1ccccc1F (centres undefined) | inconclusive: 10 µM [inhibitor, partial curve] | – |
| CCN1CCc2c(sc(NC(=S)NC(=O)c3ccc(Cl)cc3)c2C(N)=O)C1 | inconclusive: 25.1 µM [activator, single point] | – |
